Test results from PubChem BioAssay (NCI).
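In this assay, cells in 96-well plates receive the compound at five concentrations for 48 hours. Endpoints are linearly interpolated between the surrounding concentrations. TGI is the concentration that stops growth completely.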

Legend:
Assay in all cases: NCI anticancer screen, dose series, 48 h
SNB-75 CNS = test system: SNB-75 CNS
UO-31 renal = test system: UO-31 renal
SR leukemia = test system: SR leukemia
EKVX NSCLC = test system: EKVX NSCLC
NCI/ADR-RES ovarian = test system: NCI/ADR-RES ovarian
MCF7 breast = test system: MCF7 breast
HCT-15 colon = test system: HCT-15 colon
SK-MEL-28 melanoma = test system: SK-MEL-28 melanoma
OVCAR-3 ovarian = test system: OVCAR-3 ovarian
UACC-62 melanoma = test system: UACC-62 melanoma
SF-539 CNS = test system: SF-539 CNS
RPMI-8226 leukemia = test system: RPMI-8226 leukemia
MDA-MB-435 = test system: MDA-MB-435
SK-MEL-5 melanoma = test system: SK-MEL-5 melanoma
HS 578T breast = test system: HS 578T breast
SNB-19 CNS = test system: SNB-19 CNS
NCI-H522 lung = test system: NCI-H522 lung
MDA-MB-231 breast = test system: MDA-MB-231 breast
T-47D breast = test system: T-47D breast
NCI-H226 lung = test system: NCI-H226 lung
TK-10 renal = test system: TK-10 renal
SF-268 CNS = test system: SF-268 CNS
CCRF-CEM leukemia = test system: CCRF-CEM leukemia
MDA-N = test system: MDA-N
A549 NSCLC = test system: A549 NSCLC
MALME-3M melanoma = test system: MALME-3M melanoma
A498 renal = test system: A498 renal
UACC-257 melanoma = test system: UACC-257 melanoma
OVCAR-5 ovarian = test system: OVCAR-5 ovarian
NCI-H23 lung = test system: NCI-H23 lung
LOX IMVI melanoma = test system: LOX IMVI melanoma
CAKI-1 renal = test system: CAKI-1 renal
SW-620 colon = test system: SW-620 colon
PC-3 prostate = test system: PC-3 prostate
NCI-H460 lung = test system: NCI-H460 lung
SK-OV-3 ovarian = test system: SK-OV-3 ovarian
HCT-116 colon = test system: HCT-116 colon
BT-549 breast = test system: BT-549 breast
K-562 leukemia = test system: K-562 leukemia
KM12 colon = test system: KM12 colon
RXF 393 renal = test system: RXF 393 renal
ACHN renal = test system: ACHN renal
OVCAR-8 ovarian = test system: OVCAR-8 ovarian
HT29 colon = test system: HT29 colon
786-0 renal = test system: 786-0 renal
IGROV1 ovarian = test system: IGROV1 ovarian
SF-295 CNS = test system: SF-295 CNS
OVCAR-4 ovarian = test system: OVCAR-4 ovarian
SN12C renal = test system: SN12C renal
M14 melanoma = test system: M14 melanoma
U251 CNS = test system: U251 CNS
SK-MEL-2 melanoma = test system: SK-MEL-2 melanoma
DU-145 prostate = test system: DU-145 prostate
MOLT-4 leukemia = test system: MOLT-4 leukemia
HOP-62 NSCLC = test system: HOP-62 NSCLC
HL-60(TB) leukemia = test system: HL-60(TB) leukemia

In the case of `COc1cc2c(cc1OC)-c1[nH]c3ccc(C(F)(F)F)cc3c1CC(=O)N2`, the TGI (SNB-75 CNS) is reported as greater than 100 µM, the TGI (UO-31 renal) is reported as greater than 100 µM and the TGI (SR leukemia) is reported as 6.2 µM. For the same compound, the TGI (EKVX NSCLC) was greater than 100 µM, the TGI (NCI/ADR-RES ovarian) was greater than 100 µM and the TGI (MCF7 breast) was greater than 100 µM. The TGI (HCT-15 colon) was greater than 100 µM, the TGI (SK-MEL-28 melanoma) was greater than 100 µM and the TGI (OVCAR-3 ovarian) was 6.4 µM. For the same compound, the TGI (UACC-62 melanoma) was greater than 100 µM, the TGI (SF-539 CNS) was greater than 100 µM and the TGI (RPMI-8226 leukemia) was 6.28 µM. For the same compound, the TGI (MDA-MB-435) was greater than 100 µM, the TGI (SK-MEL-5 melanoma) was greater than 100 µM and the TGI (HS 578T breast) was greater than 100 µM. For the same compound, the TGI (SNB-19 CNS) was greater than 100 µM, the TGI (NCI-H522 lung) was greater than 100 µM and the TGI (MDA-MB-231 breast) was greater than 100 µM. The TGI (T-47D breast) was greater than 100 µM, the TGI (NCI-H226 lung) was 8.7 µM and the TGI (TK-10 renal) was greater than 100 µM. For the same compound, the TGI (SF-268 CNS) was greater than 100 µM, the TGI (CCRF-CEM leukemia) was greater than 100 µM and the TGI (MDA-N) was greater than 100 µM. For the same compound, the TGI (A549 NSCLC) was 26.1 µM, the TGI (MALME-3M melanoma) was greater than 100 µM and the TGI (A498 renal) was 27.7 µM. For the same compound, the TGI (UACC-257 melanoma) was greater than 100 µM, the TGI (OVCAR-5 ovarian) was greater than 100 µM and the TGI (NCI-H23 lung) was greater than 100 µM. For the same compound, the TGI (LOX IMVI melanoma) was greater than 100 µM, the TGI (CAKI-1 renal) was greater than 100 µM and the TGI (SW-620 colon) was greater than 100 µM. It also gave a TGI (PC-3 prostate) greater than 100 µM, a TGI (NCI-H460 lung) greater than 100 µM and a TGI (SK-OV-3 ovarian) greater than 100 µM. For the same compound, the TGI (HCT-116 colon) was 3.12 µM, the TGI (BT-549 breast) was greater than 100 µM and the TGI (K-562 leukemia) was greater than 100 µM. It also gave a TGI (KM12 colon) greater than 100 µM, a TGI (RXF 393 renal) of 4.01 µM and a TGI (ACHN renal) greater than 100 µM. For the same compound, the TGI (OVCAR-8 ovarian) was greater than 100 µM, the TGI (HT29 colon) was greater than 100 µM and the TGI (786-0 renal) was 20.2 µM. For the same compound, the TGI (IGROV1 ovarian) was greater than 100 µM, the TGI (SF-295 CNS) was greater than 100 µM and the TGI (OVCAR-4 ovarian) was greater than 100 µM. It also gave a TGI (SN12C renal) greater than 100 µM, a TGI (M14 melanoma) greater than 100 µM and a TGI (U251 CNS) greater than 100 µM. The TGI (SK-MEL-2 melanoma) was greater than 100 µM, the TGI (DU-145 prostate) was greater than 100 µM and the TGI (MOLT-4 leukemia) was 6.19 µM. For the same compound, the TGI (HOP-62 NSCLC) was greater than 100 µM and the TGI (HL-60(TB) leukemia) was 96.7 µM.
